Assay results: the RNAGym collection of RNA variant scans (doi:10.7554/elife.90254)
Read counts are not given, so values of variants with three or more changes are uncertain.

B1: LINE1-full (parent)
chain: UACGUAGGUGGUUUUCCCCUGAUAGUGCUAAGGGGGCCUGGAAGUUUGGACUGGGCAGAGCUCAACACAGCGUGGCAAAGUGGCUGUGGCUAGACUGCCUCUCUGGAUUCCUCGUCACUCAGCAGGGCAUCUCUGAGAGAAAUGCC

Variants of: B1
Experiment: self-cleavage, relative activity (ratio to wild type); higher = more cleavage; in vitro, sequencing; the parent is a self-cleaving ribozyme

| Variant | self-cleavage |
| --- | --- |
| UACGUAGGUGGUUUUCCCCUGAUAGAGCUAAGUGGGCCUGGAAGUUUGGACCGGGCAGAGCUCAACACAGCGUGGCAAAGUGGCUGUGGCUAGACUGCCUCACUGGAUUCCUCGUCACUCAGCAGGGCAUCUCUGAGAGAAAUGCC [U26A G33U U52C U102A] | 1.15 |
| UACGUAGGUGGUUUUCCCCUGAUAGUGCUAAGGGGGCCUGGAAGUUUGGACUGGGCAGAGCUCAGCACAGCGUGGCAAAGUGGCAGUGGCUAGACUGCCUCUCUGGAUUCCUCGUCACUCAGCAGGGCAUCUCUGGGAGAAAUGCC [A65G U85A A136G] | 0.13 |
| UACGUAGGUGGUUUUCCCCUGAUAGUGCUAAGGGGGCCUGGAAGGUUGGACUGGGCAGAGCUCAACACAGCGUGGCAGAGUGGCUGUGGCUUGACUGCCUCUCUGGAUUCCUCGUCACUUAGCAGGGCAUCUCUGAGAGAAAUGCC [U45G A78G A92U C120U] | 0.66 |
| UACGUAGGUGGUUCUCCCCUGAUAGUGCUAAGGGGGCCUGGAAGUUUGGACUGGGCAGAGCUCAGCACAGCGUGGCAAAGUGGCUGUGGCUAGACUGCCUCUCUGGUUUCCUCGUCACUCAGCAGGGCAUCUCUGAGAGAAAUGCC [U14C A65G A107U] | 0.12 |
| UACGUAGGUGGUUUUCCCCUGAUAGUGCUAAGGGGGCCUGGAAGUUUGGACUGGACAGAGCUCAACACAGCGUGGCAAAGUGGCUGUGGCUAGACAGCCUCUCUGGAUUCCUCGUCACACAGCAGGGCAUCUCUGAGAGAAAUGCC [G55A U96A U119A] | 0.03 |
| UACGUAGGAGGUUCUCCCCAGAUAGUGCUAAGGGGGCCUGGAAGUUUGGACUGGGCAGAGCUCAACACAGCGUGGCAAAGCGGCUGUGGCUAGACUGCCUCUCUGGAUUCCUCGUCACUCAGCAGGGCAUCUCUGAGAGAAAUGCC [U9A U14C U20A U81C] | 0.77 |
| UACGUAGGUGGUUUUCCCCUGAUAGUGCUAAGGGGGUCUGGAAGUUUGGACUGGGCAGAGCUCAACACAGCGUGGCAAAGUGGCUGUGGCUAGACUGCCUCUCUGGAUUCCUCGUCACCCAGCAGGGCAUCUCCGAGAGAAAUGCC [C37U U119C U134C] | 1.42 |
| UACGUAGGUGGUUUUCCCCUGAUAGUGCUAAGGGGGCCUGGAAGUUUGGACUGGGCAAAGCUCAACACAGGGUGGCAAAGUGGCUGUGGCUAGACUGCCUCUCUGGAUUCCUCGUCACUCAGCAGGGCAUCUCUGAGAGAAACGCC [G58A C71G U143C] | 0.03 |
| UACGUAGGUGGGUUUCCCCUGACAGUGCUAAGGGGGCCUGGAAGUUUGGACUGGGCGGAGCUCAACACAGCGUAGCAAAGUGGCAGUGGCUAGACUGCCUCUCUGGAUUCCUCGUCACUCAGCAGGGCAUCUCUGAAAGAAAUGCC [U12G U23C A57G G74A U85A G137A] | 0.1 |
| UACGUAGGUGGUUUUCCCCUGAUAGUGCUAAGGGGGCCUGGAAGUUUGGACUGGGCAGGGCACAACACUGCGUGGCAAAGUGGCUGUGGCUAGACUGCCUCUCUGGAUUCCUCGUCACUCAGCAAGGCAUCUCUGAGAGAAAUGCC [A59G U62A A69U G125A] | 0.02 |
| UACGUAGGUGGUUUUCCCCUGAUAGUGCUAAGGGGGCCUGGAAGGUUGCACUGGGCAGAGCUCAACACAGCGUGGCAAAGUGGCUGUGGCUAGACUGCCUCUCAGGAUUCCUCGUCACUCAGCAGGGCAUCUCUGAGAGAAAUGCC [U45G G49C U104A] | 1.71 |
| UACGUAGGUGGUUUUCCCCUGAUAGUGCUAAGGGGGCCUGGAAGUUUGGACAGGGCAGAGCUCAACACAGCGUGGCAAAGUGGCUGUGGCUAGACUGCCUCUCUGGAUUCCUCGUCACUCAGCAGGGCAUCUCUGAGGGGAAUGCC [U52A A138G A140G] | 1.69 |
| UACGUAGGUGGUUUGCCCCUGAUAGUGCUGAGGGGGCCUGGAAGUUUGGACUGGGCAGAGCUCAACACAGCGUGGCAAAGUGGCUGUGGCUAGACUGCCUCUCUGGACUCCUCGUCACUCAGCAGGGCAUCUCUGAGAGAAAUGCC [U15G A30G U108C] | 0.57 |
| UACGUAGGUGGUUUUCCCCUGAUAGUGCUAAGGGGGCCUGGAAGUUUGGACAGGGCAGAGCUCUACACAGCGUGGCAAAGUGGCUGUGGCUAGACUGCCUCUCUGGAUUCCUCGUCACACAGCAGGGCAUCUCUGAGAGAGAUGCC [U52A A64U U119A A141G] | 0.58 |
| UACGUAGGUGGUUUUCCCCUGAUAGUGCUAAGGGGGCCUGGAUGUUUGGACUGGGCAGAGCUCAACACAGCGUGGCAAAGUGGCCGUGGCUAGACUGCCUCUCUGGAUUCCUCGUCACUCAGCAGGGCGUCUCUGAGAGAAAUGCC [A43U U85C A129G] | 0.19 |
| UACGUAGGAGGUUUUCCCCUGAUAGUGCUAAGGGGGCCUGGAAGUUUGGACUGGGCAGAGCUCAACACAGCGUGGCAAAGUGGCUGUGGCUAGACUGCCCCUCUGGAAUCCUCGUCACUCAGCAGGGCAUCUCUGAGAGAAAUGCC [U9A U100C U108A] | 0.6 |
| UACGUAGGUGGUUUUCCCCUGAUAGUGCUAAGGGGGCCUGGAAGUUUGGACUGGGCAGAGCUCAACACAGCGUGGCAAAGUGGCUGAGGCUAGACCGCCUCUCUGGAUUCCUCGUCACUCAGCAGGGCGUCUCUGGGAGAAAUGCC [U87A U96C A129G A136G] | 0.18 |
| UACGUAGGUGGUUUUCCCCUGAUAGUGCUAAGGGGGCCUGGAAGUUUGGACUGGGCAGAGCUCAACACAGCGUGGCAAGGUGGCUGUGGCUAGACUGCCUCUCUGGAUUCCUCGUCACCCAGCAGGGCAUCUCUGAGAGAAGUGCC [A79G U119C A142G] | 1.44 |
| UACGUAGGUGGUUUUCCCCUGAUAGUGCUAAGGGGGCCUGGAAGUUUGGACUGGGCAGAGCUCAACACAGCGUGGCAAAGUGGCUGUGGCUAGACUGCCUCUCUGGAUUCCUCGUCACCCGGCAGGGCAUCUUUGAGAGAAAUGCC [U119C A121G C133U] | 3 |
| UACGCAGGUGGCUUUCCCCUGAUAGUGCUAAGGGGGCCUGGAAGUUUGGACUGGGCAGAGCUCAACACAGCGUGGCAAAGUGGCUGUGGCUAGACAGCCUCUCUGGAUUCCUCGUCACUCAGCAGGGCAUCUCUGAGAGAAAUGCC [U5C U12C U96A] | 0.24 |
